Screen size: about 350,000 compounds; about 9,900 (2.8%) were called active. The shares of active, inactive and inconclusive entries below differ from those in the screen. The call rests on the fitted dose curve; in most records, active means well fitted activation curve with a large enough effect; inconclusive means small, poorly fitted or top-dose-only effect; inactive means no such curve, though single readings can be large or run the other way. No potency is given beside an inconclusive call; the fits are too rough.
Assay: A quantitative high throughput screen for small molecules that induce DNA re-replication in MCF 10a normal breast cells. Further: nearly all actives have a fitted effect of over 50% in size. On activity, positive = re-replication: % of control where 0% means no effect.
Conditions: MCF 10A DNA re-replication, Hoechst nuclear intensity, 48 h; activity, positive = re-replication: at 46.1 µM (top of the series)
Potency means the concentration at half of the fitted maximal effect; tags describe the fitted curve by direction and shape.

Compound | Potency | activity, positive = re-replication
O=C(c1ccco1)N1CCC(c2nc(-c3ccccc3Cl)no2)CC1 | inactive | –
Cn1c(=O)c2c(nc(Sc3ncccn3)n2Cc2ccccc2Cl)n(C)c1=O | inconclusive [activator, partial curve, poor fit] | –
CC(C)CN(CC(C)C)C(=O)c1cccc(S(=O)(=O)N2CCc3ccccc32)c1 | inconclusive [activator, single point] | –
CC1CCN(S(=O)(=O)c2ccc(NC(=O)[C@@H]3CCCC[C@@H]3C(=O)O)cc2)CC1 | inconclusive [activator, single point] | –
CCOC(=O)NC(C(Cl)(Cl)Cl)S(=O)(=O)c1ccccc1 (configuration not stated) | inconclusive [activator, single point] | –
OCCCn1c(C2CCCN2c2nc(-c3ccc(F)cc3)cs2)nc2cc(C(F)(F)F)ccc21 (configuration not stated) | inconclusive [activator, single point] | –
COc1cccc(-c2cc(CC3(O)CCN(CCCc4ccccc4)CC3)on2)c1 | inconclusive [activator, partial curve, poor fit] | –
COc1ccc(CCNC(=O)c2cc3cc(F)ccc3nc2C)cc1OC | inactive | –
COc1ccc2sc(-c3ccccc3OC)c(-c3ccc(OC)nc3)c2c1 | active: 23.1 µM | –
Nc1c(C(=O)NCc2ccccc2)c2nc3ccccc3nc2n1CCCN1CCOCC1 | active: 18.4 µM | –
CCCCC(c1nnnn1CCOC)N1CCN(CC)CC1 (configuration not stated) | – | inactive: 2.26% [at 9.22 µM]
O=C(NCc1ccco1)c1ccc(Br)c(S(=O)(=O)N2CCCCC2)c1 | inactive | –
Cc1cc(C)c2c(N)c(C(=O)N3CCc4ccccc4C3)sc2n1 | inconclusive [activator, single point] | –
Cc1ccc(C2C3=C(CC(C)(C)CC3=O)N=C3c4ccccc4C(=O)C32)cc1 (configuration not stated) | inactive | –
Cc1cc(OCC(O)CNC(C)c2ccccc2)ccc1C(C)C (configuration not stated) | inconclusive [activator, single point] | –
C=CCc1cccc(/C=N/n2cnnc2)c1O | inactive | –
CCOc1ccc(NC(=O)c2cc([N+](=O)[O-])ccc2N2CCOCC2)cc1 | inconclusive [activator, single point] | –
CCN(CCCNC(=O)COc1cc(=O)n(CC)c2ccccc12)Cc1ccccc1 | inconclusive [activator, single point] | –
Cc1ccccc1C1C(C#N)=C(N)N(N(C)C)C2=C1C(=O)CC(C)(C)C2 (configuration not stated) | inconclusive [activator, single point] | –
Cc1ccc(F)cc1S(=O)(=O)NCc1ccc(N2CCN(C)CC2)cc1 | inconclusive [activator, partial curve, poor fit] | –
Cc1cc(C)c(COc2ccc(/C=N/n3c(C)n[nH]c3=S)cc2)c(C)c1 | active: 13 µM | –
Oc1c(Br)cc(Cl)cc1C=Nc1ccccc1Br | inconclusive [activator, single point] | –
COc1ccc(CNC(=O)[C@H](C)N2C(=O)N3CCc4c([nH]c5ccc(OC)cc45)[C@@]3(C)C2=O)cc1 | inconclusive [activator, partial curve, poor fit] | –

Compound | Potency | activity, positive = re-replication
COc1cccc(C(=O)/C=C/Nc2ccc(S(=O)(=O)Nc3nc(C)cc(C)n3)cc2)c1 | inconclusive [activator, single point] | –
COC(=O)C1=C(C)N(Cc2ccccc2)C(=NCC(C)C)N[C@H]1c1cccc(C(F)(F)F)c1 | inconclusive [activator, single point] | –
Cn1ccsc1=NC(=O)c1ccc([N+](=O)[O-])o1 | active: 7.31 µM | –
CCn1ncc(C2=NOC(C(=O)NCCc3ccccc3)C2)c1C (configuration not stated) | inconclusive [activator, single point] | –
CCCn1c(Cc2ccccc2)nnc1SC(C)C(=O)NC1CC1 (configuration not stated) | inactive | –
Cc1sc2ncnc(N3CCC(C(=O)NNC(=O)COc4cccc(C(F)(F)F)c4)CC3)c2c1C | inconclusive [activator, partial curve, poor fit] | –
COc1ccc(NC(=O)Nc2ccc3c(c2)C(=O)N([C@@H](C)CO)C[C@@H](C)[C@@H](CN(C)CC2CCCCC2)O3)cc1 | inconclusive [activator, partial curve, poor fit] | –
Cc1ccc(C)c(S(=O)(=O)Nc2ccc(O)c3ccccc23)c1 | inactive | –
Clc1ccc2nc(-c3ccc(Cl)nc3)[nH]c2c1 | inconclusive [activator, single point] | –
CSc1ccc(CNc2ccc(C)c(C)c2)cc1 | inconclusive [activator, single point] | –
O=C(Nc1ccccc1O)C(c1ccccc1)c1ccccc1 | inconclusive [activator, partial curve, poor fit] | –
O=C1Nc2ccc([N+](=O)[O-])cc2OC1CCN1CCN(c2ccccc2)CC1 (configuration not stated) | inconclusive [activator, single point] | –
COc1ccc(S(=O)(=O)Oc2ccc3cccc(N)c3c2)cc1 | inconclusive [activator, single point] | –
O=c1c2ccccc2ncn1-c1ccc([N+](=O)[O-])cc1Cl | inconclusive [activator, single point] | –
CC1(C)Oc2ccc3ccc(=O)oc3c2-c2cn[nH]c21 | inconclusive [activator, single point] | –
O=C(CCNc1cccc(Cl)c1)c1ccco1 | inconclusive [activator, single point] | –
Cc1c(NC(=O)C(C)OC(=O)/C=C/c2ccc(OC(F)F)cc2)c(=O)n(-c2ccccc2)n1C (configuration not stated) | inactive | –
Cc1ccc(-n2cc(CNCCn3nc(C)cc3C)c(-c3ccc(F)cc3)n2)cc1 | inconclusive [activator, single point] | –
COCC(C)n1c(SCc2ccc(OC)c(F)c2)nc2ccccc2c1=O (configuration not stated) | inactive | –
O=C(Nc1ccc(S(=O)(=O)N2CCc3ccccc32)cc1)C(F)(F)F | inactive | –
Cc1nn(-c2ccc(F)cc2)c2nc(N)c(C#N)c(-c3cccs3)c12 | inconclusive [activator, partial curve] | –
CN(C)c1ccc(C(=O)OCC(=O)c2cccs2)cc1 | inconclusive [activator, single point] | –
CCCn1c2ccccc2c2cnn(CC(=O)NCCCN3CCCCC3CC)c(=O)c21 (configuration not stated) | inconclusive [activator, single point] | –

Compound | Potency | activity, positive = re-replication
CC1(C)CC(=O)C2=C(C1)NC(=S)C(C#N)C21CCCCC1 (configuration not stated) | inactive | –
C=CCc1cc(C=O)cc(OC)c1OCc1c(Cl)cccc1Cl | inconclusive [activator, partial curve, poor fit] | –
COc1ccc(OC)c(CN2CCC(C(=O)N3CCOCC3)CC2)c1 | inconclusive [activator, partial curve, poor fit] | –
CCOc1ccc(-n2c(C)cc(/C=C3/C(=N)N4C(=NC3=O)SN=C4S(C)(=O)=O)c2C)cc1 | active: 14.6 µM | –
Clc1ccc(-c2nnc(SCc3cn4ccsc4n3)n2CC2CCCO2)cc1 (configuration not stated) | inactive | –
CN(Cc1ccccc1)C(=O)c1oc(=O)c2ccccc2c1-c1ccccc1 | inconclusive [activator, full curve] | –
C/C=C/C(=O)OCC(=O)Nc1nc2ccc(C)cc2s1 | inactive | –
C/C(CC(=O)Nc1ccc(Cl)cc1C(F)(F)F)=N\NC(=O)c1cccs1 | inconclusive [activator, partial curve, poor fit] | –
CCCCNc1c(-c2ccc(SC3CCCCC3)cc2)nc2cnccn12 | inconclusive [activator, single point] | –
CC(C)(C)c1ccccc1NC(=S)NCc1ccccc1 | inconclusive [activator, full curve] | –
COc1ccccc1C1C2=C(CCCC2=O)N(CC(=O)O)C2=C1C(=O)CCC2 | inconclusive [activator, single point] | –
Cc1ccc(C)c(NC(=S)NNC(=O)c2csc3c2CCCC3)c1 | inconclusive [activator, partial curve, poor fit] | –
N#C/C(=C\c1cccc(O)c1)c1nc2ccccc2o1 | inconclusive [activator, single point] | –
Cc1ccc2nc3c(cc(C(=O)NCC4CCCO4)c(=N)n3C3CCCC3)c(=O)n2c1 (configuration not stated) | inconclusive [activator, partial curve, poor fit] | –
O=C1c2oc3ccccc3c(=O)c2C(c2cccnc2)N1Cc1ccco1 (configuration not stated) | inactive | –
O=C(NC1CC1)C1CCN(S(=O)(=O)c2ccc(Cl)c([N+](=O)[O-])c2)CC1 | inconclusive [activator, single point] | –
COc1ccccc1-n1cnnc1SCC(=O)N1CCN(C(=O)c2ccco2)CC1 | inconclusive [activator, full curve, poor fit] | –
CCOc1ccc(NC(=O)C2CC(=O)N3CCCN=C3S2)cc1 (configuration not stated) | inactive | –
O=C(c1ccccc1F)N1CCN(C(=O)C2CC2)CC1 | inconclusive [activator, single point] | –
CCCCCCCCC(=O)NNC(=O)c1c(O)c2ccccc2n(CC)c1=O | inconclusive [activator, partial curve, poor fit] | –
COc1ccc(S(=O)(=O)N(CC(=O)NCc2ccncc2)c2cc(C)cc(C)c2)cc1OC | inactive | –
